Data: publication PMC4336329 (PLoS ONE, 2015)
In all, about 310,000 compounds went through this assay and about 2,200 (0.71%) showed an effect of 50% or more. Effects have a minus sign here. This is one part of the list.

These compounds were tested against human ether-à-go-go-related gene (hERG) potassium channel (human, UniProt Q12809) (assay: primary screen, population patch clamp on CHO cells stably expressing hERG).
human ether-à-go-go-related gene (hERG) potassium channel, sequence (Q12809 whole entry, looked up): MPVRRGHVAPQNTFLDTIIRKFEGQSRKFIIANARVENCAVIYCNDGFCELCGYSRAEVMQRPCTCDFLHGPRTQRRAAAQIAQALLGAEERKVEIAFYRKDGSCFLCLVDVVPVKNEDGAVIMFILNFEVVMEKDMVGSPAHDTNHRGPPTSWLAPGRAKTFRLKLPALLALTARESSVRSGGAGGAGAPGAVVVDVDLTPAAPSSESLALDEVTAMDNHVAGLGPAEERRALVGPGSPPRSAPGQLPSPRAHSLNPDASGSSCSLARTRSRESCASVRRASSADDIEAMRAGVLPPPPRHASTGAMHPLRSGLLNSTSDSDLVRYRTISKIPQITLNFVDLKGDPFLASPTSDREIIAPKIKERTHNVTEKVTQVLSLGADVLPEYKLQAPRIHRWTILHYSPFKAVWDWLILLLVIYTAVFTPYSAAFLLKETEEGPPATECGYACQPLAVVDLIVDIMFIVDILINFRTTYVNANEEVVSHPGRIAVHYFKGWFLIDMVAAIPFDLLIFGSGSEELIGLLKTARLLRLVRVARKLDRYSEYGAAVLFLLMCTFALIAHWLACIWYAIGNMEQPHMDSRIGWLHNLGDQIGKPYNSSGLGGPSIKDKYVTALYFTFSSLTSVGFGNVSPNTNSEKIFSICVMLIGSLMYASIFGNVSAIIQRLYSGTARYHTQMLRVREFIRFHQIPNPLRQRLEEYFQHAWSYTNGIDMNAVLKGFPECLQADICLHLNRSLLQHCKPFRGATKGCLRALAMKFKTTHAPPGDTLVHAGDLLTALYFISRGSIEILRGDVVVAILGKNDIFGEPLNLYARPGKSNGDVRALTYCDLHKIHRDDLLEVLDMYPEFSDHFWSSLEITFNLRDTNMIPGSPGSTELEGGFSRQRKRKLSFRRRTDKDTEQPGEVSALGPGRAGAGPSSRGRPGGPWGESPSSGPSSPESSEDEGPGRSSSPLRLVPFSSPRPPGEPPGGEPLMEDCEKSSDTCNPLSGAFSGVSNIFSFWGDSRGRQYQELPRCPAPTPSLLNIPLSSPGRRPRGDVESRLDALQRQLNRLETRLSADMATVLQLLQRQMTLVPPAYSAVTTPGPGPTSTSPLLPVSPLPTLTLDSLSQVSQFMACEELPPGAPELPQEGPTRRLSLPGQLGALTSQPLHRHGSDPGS

Row | Structure (SMILES) | hERG current change (%, negative = inhibition) at 1uM
1 | COc1ccc(C(=O)NNC(=S)NC(=O)c2ccc(Br)o2)cc1OC | 6.58%
2 | C=CCn1c(C)cc(C(=O)Cn2ncc(Cl)c(Cl)c2=O)c1C | 0.203%
3 | CCCCNC(=O)c1cc2c(=O)n3cccc(C)c3nc2n(Cc2ccccc2)c1=N | -80.7%
4 | COc1cccc(NC(=O)Cn2c(=O)n(C)c(=O)c3sc4c(c32)COC(C)(C)C4)c1 | 6.97%
5 | CCC(=O)N(c1ccc(F)cc1)C1C=CS(=O)(=O)C1 (stereo not shown) | 8.34%
6 | CC1(C(=O)NCc2ccc(Cl)c(Cl)c2)Oc2ccccc2NC1=O (stereo not shown) | 6.03%
7 | Cc1ccc(-n2ncc3c(=O)n(Cc4ccccn4)cnc32)cc1C | -0.792%
8 | O=C(CSc1nc2ccccc2o1)Nc1nncs1 | 14.9%
9 | O=C(C1CCCO1)N1CCN(C(=S)Nc2ccc(Br)cc2)CC1 (stereo not shown) | 10.4%
10 | COc1cccc(CN(C(=O)COc2ccc(Cl)cc2)C2CCS(=O)(=O)C2)c1 (stereo not shown) | 5.28%
11 | COc1ccc(-c2csc(Nc3cccc(C)n3)n2)cc1C | 11.8%
12 | COc1ccc(NC(=S)NCCCc2ccccc2)cc1 | 3.53%
13 | N#CC1(NC(=O)CSc2nnc(Cc3ccccc3)o2)CCCCC1 | 8.97%
14 | CCOC(=O)c1c(-c2ccc(C)o2)csc1NC(=O)CSc1nnc(C)s1 | 13.6%
15 | O=S(=O)(NCC(c1ccc2c(c1)OCO2)N1CCN(c2ccccc2)CC1)c1ccccc1 (stereo not shown) | 14%
16 | COc1ccc(-c2c[n+]3c4n2CCCCC4=C(c2ccc(Br)cc2)C3)cc1.[Br-] | -79.6%
17 | O=C1[C@@H]2C3C=CC(O3)[C@@H]2C(=O)N1c1ccccc1 | 12.7%
18 | CCOc1ccc(OCCOC(=O)CN(C)S(=O)(=O)c2ccc(NC(C)=O)cc2)cc1 | 5.33%
19 | CN(C)CCSc1nnc2sc3ccccc3n12 | 3.31%
20 | N#Cc1cnn2c(N)c(-c3ccc(Cl)cc3)cnc12 | 16.2%
21 | O=C(c1cc(-c2cccc(Br)c2)nc2ccccc12)N1CCCC1 | 4%
22 | CCCNC(=O)COc1coc(CN2CCN(C(=O)c3ccco3)CC2)cc1=O | 7.77%
23 | Cc1cc(C)nc(SCNC(=O)c2ccccc2)n1 | 8.19%
24 | CN(C)C(=O)C(=O)c1c(-c2ccccc2)cc2ccccn12 | 9.87%
25 | OC(COCC(F)(F)C(F)(F)C(F)(F)C(F)F)Cn1c2ccccc2c2ccccc21 (stereo not shown) | 4.98%
26 | Cc1cccc2cc3c(N)c(C#N)sc3nc12 | 14.9%

Row | Structure (SMILES) | hERG current change (%, negative = inhibition) at 1uM
27 | O=C(CN1CCN(c2ccccn2)CC1)Nc1ccc(Cl)c(C(F)(F)F)c1 | 0.117%
28 | O=C(CCN1CCN(S(=O)(=O)c2ccc(Cl)cc2)CC1)Nc1ccccc1F | 4.11%
29 | CN(CC(=O)Nc1ccc(F)cc1)C(=O)c1cc(-c2ccco2)nc2ccccc12 | 10.1%
30 | Cc1ccc(CNC(=O)c2ccc(N3CCC4(CC3)CC(c3cccc(Br)c3)=NO4)c([N+](=O)[O-])c2)cc1 | 10.6%
31 | CS(=O)(=O)c1cccc(C(=O)OCC(=O)Nc2ccc3c(c2)OCO3)c1 | 3.48%
32 | CC1CCN(CCCNC(=O)C2CCN(S(=O)(=O)N3CCC4(CC3)OCCO4)CC2)CC1 | 12.7%
33 | C=CCn1c(SCC(=O)Nc2ncc(Cc3ccc(C)c(Cl)c3)s2)nnc1-c1ccncc1 | 8.97%
34 | COc1ccc(-c2cn3cccnc3n2)cc1NC(=O)CC(C)C | 10.2%
35 | CCC1=C(OC(=O)N(CC)CC)N2C(=O)OC(=NCc3ccccc3)[C@]2(C)[C@H]2C1=CC[C@H]1C(=O)N(c3ccccc3)C(=O)[C@H]12 | -4.57%
36 | O=C(O)CCC(=O)NNC(=O)c1cccc(Cl)c1 | 12.1%
37 | Cc1ccc(NC(=S)NCc2ccccc2)cc1C | 14.3%
38 | CCCCn1c(SCC(=O)Nc2cc(C(F)(F)F)ccc2Cl)nnc1C(CC)N(C)C (stereo not shown) | -1.24%
39 | COc1ccc(S(=O)(=O)NCCC(=O)Nc2ccc(C)cc2)cc1 | 8.93%
40 | COc1ccc(N(CC(=O)N2CCN(C)CC2)S(=O)(=O)c2cc(C)ccc2OC)cc1Cl | -15.8%
41 | CCN(C(=O)COC(=O)Cn1c(C)csc1=O)c1c(N)n(Cc2ccccc2)c(=O)[nH]c1=O | 2.6%
42 | C=CCc1ccc(OC(=O)c2ccccc2)c(OC)c1 | 14.9%
43 | O=C(c1ccco1)N1CCN(c2cc(C(F)(F)F)nc3ncnn23)CC1 | 1.59%
44 | O=S1(=O)C[C@@H](O)[C@@H](Nc2ccc(Cl)cc2)C1 | 10.7%
45 | CC(C)(C)N(Cc1ccccc1)C(=O)COC(=O)/C=C/c1ccc2c(c1)OCO2 | -4.1%
46 | CCC(C)C(=O)N[C@@H](c1ccccc1)[C@@H](O)C(=O)O[C@H]1C[C@@]2(O)[C@@H](OC(=O)c3ccccc3)C3[C@](C)(C(=O)[C@H](OC(C)=O)C(=C1C)C2(C)C)[C@@H](O)C[C@H]1OC[C@@]31OC(C)=O (stereo partly shown) | 7.34%
47 | COc1ccc(S(=O)(=O)N2CCC(C(=O)Nc3ccccc3N3CCCC3)CC2)cc1OC | 9.19%
48 | COC(=O)C1(C)NC(c2ccccc2C)C2C(=O)N(c3ccc(F)cc3)C(=O)C21 (stereo not shown) | 4.52%
49 | N#CC(c1ccc(Cl)nn1)c1ccccc1Cl (stereo not shown) | 4.99%
50 | COc1ccc(C(CNC(=O)c2ccc(-c3cccc(C(F)(F)F)c3)o2)N2CCOCC2)cc1 (stereo not shown) | 16.9%
51 | CC1(C(=O)NCCc2c[nH]c3ccccc23)C=CC2(CCCCC2)N1C(=O)c1ccccc1 (stereo not shown) | 2.59%
52 | COc1ccc(NC(=O)c2ccc(S(=O)(=O)N3CCCCC3)cc2)c(OC)c1 | 10.5%
